Among all 340,000 compounds or so, about 12,000 (3.5%) were called active. This list was built around the results that the source calls inconclusive (neither active nor inactive); the mix of calls is not that of the screen. The call rests on the fitted dose curve; in most records, active means well fitted inhibition curve with a large enough effect; inconclusive means small, poorly fitted or top-dose-only effect, or another doubt; inactive means no such curve, though single readings can be large or run the other way. No potency is given beside an inconclusive call; the fits are too rough.
Assay: qHTS Assay for Inhibitors of Hepatitis C Virus (HCV)
Settings: Huh7.5.1 HCVcc-Cre (HCVcc is cell-culture hepatitis C virus) infection, luciferase reporter, 44 h; activity change, negative = inhibition: at 41.8 µM (top of the series) unless noted
How it was run: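 Seed cells (1,000/well) for 4 h; treat with compound and infect with HCVcc-Cre, moi about 0.5. Incubate 44 h, then detect luciferase activity.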
On the % scale 0 is the no-effect control and ±100 the full control effect; potency means the concentration at half of the fitted maximal effect; tags describe the fitted curve by direction and shape.

SMILES | Potency | activity change, negative = inhibition
CCCc1cc(=O)oc2cc(Oc3ncccn3)ccc12 | inconclusive [inhibitor, single point] | 
COc1ccc(S(=O)(=O)N2CCCCC2)cc1NS(=O)(=O)c1ccccc1 |  | inactive: 26.2%
CCOc1ccccc1OCCCC(=O)N(CC)CC(=O)Nc1c(F)cccc1F |  | inactive: -8.26%
Cc1ccccc1Cn1c(O)c(N=NC(=S)Nc2ccccc2F)c2ccccc21 | active: 2.24 µM | 
Cc1ccc(C)c(N2CC(=O)N(c3cc(C)ccc3C)CC2=O)c1 |  | inactive: 7.88%
Cc1ccc(NC(=O)c2ccc3nc[nH]c3c2)c(O)c1 |  | inactive: 21.5%
COc1ccc(C(=O)N2CCCC(c3nc(-c4cc(OC)c(OC)c(OC)c4)no3)C2)cc1 (stereo not given) | inconclusive [inhibitor, single point] | 
CC1(NCc2ccc(Cl)cc2)COP(=O)(NCc2ccccc2)OC1 (stereo not given) |  | inactive: 13.4%
Cc1cc(-c2ccco2)c(C#N)c2nc3ccccc3n12 | inconclusive [inhibitor, single point] | 
O=C(CCl)Nc1cccn2ncnc12 | inconclusive [inhibitor, single point] | 
Cc1ccc(S(=O)(=O)N(C)C)cc1NC(=O)CSc1nnc(C2CC2)n1C1CC1 | inconclusive [inhibitor, single point] | 
CCn1c2ccccc2c2cc(NC(=O)c3cc(OC)c(OC)c(OC)c3)ccc21 | inconclusive [inhibitor, full curve, poor fit] | 
CCN(CC)CCNCc1ccc(Br)cc1OCC(=O)NCc1ccccc1 | inconclusive [inhibitor, partial curve, poor fit] | 
CCOC(=O)CNc1c(-c2ccc(O)cc2)nc2ccc(Cl)cn12 | inconclusive [inhibitor, single point] | 
Cc1cc(=O)[nH]c(N2CCN(c3ccc(Cl)cc3)CC2)n1 | inconclusive [inhibitor, single point] | 
Cc1ccc(CN=C(N)Nc2nc(C)cc(C)n2)cc1 | active: 15.8 µM | 
Cc1ccc(C2=CC(=O)C[C@H](c3ccc4c(c3)OCO4)C2)cc1 |  | inactive: -29.3%
CCCCNC(=O)c1cc2ccccc2s1 |  | inconclusive: -34.6% [inhibitor]
CC(NC(=O)c1ccc(OC2CCN(S(=O)(=O)N(C)C)CC2)cc1)C1CC1 (stereo not given) |  | inactive: 6.27%
CC(=O)Nc1ccc2c(c1Br)Cc1ccccc1-2 | inconclusive [inhibitor, single point] | 
COc1cccc2c1C(=O)c1c(O)c3c(c(O)c1C2=O)CC(O)(C(=O)CO)CC3OC1CC(N(C)C)C(O)C(C)O1 (stereo not given) | inconclusive [inhibitor, full curve, poor fit] | 
C[C@@H]1COC(=O)CCC/C=C\C[C@@H](CC(=O)N(CCO)Cc2ccccc2)C(=O)N1 |  | inactive: -0.378%
O=C(COC(=O)C1CCCCC1)Nc1ccc(S(=O)(=O)N2CCOCC2)cc1 |  | inactive: -2.62%

SMILES | Potency | activity change, negative = inhibition
CCCN(CCC)S(=O)(=O)c1cc2c(cc1Br)CCN2C(=O)CC | inconclusive [inhibitor, single point] | 
O=C(O)/C=C/C(=O)NNc1ncnc2ccccc12 |  | inactive: -4.73%
Cc1cc(-c2csc(NC(=O)c3ccc(S(=O)(=O)N(C)C)cc3)n2)c(C)n1-c1ccccc1 | inconclusive [inhibitor, full curve] | 
O=C(NCc1ccc(F)cc1)c1cccc2c1C(=O)c1ccc(N3CCC(Cc4ccccc4)CC3)cc1S2(=O)=O | inconclusive [inhibitor, single point] | 
CC1Sc2ccc(S(=O)(=O)N3CCN(c4ccccc4)CC3)cc2NC1=O (stereo not given) | inconclusive [inhibitor, single point] | 
CCOC(=O)c1c(C)n(OC)c2ccc3c(no[n+]3[O-])c12 | inconclusive [inhibitor, partial curve] | 
COc1ccc(/C=C/C(=O)OCC(=O)Nc2cccc(Oc3ccccc3)c2)c(OC)c1 | inconclusive [inhibitor, single point] | 
CCOc1nc(-c2ccc(Cl)cc2)nc2ccccc12 |  | inactive: 6.36%
O=c1c(Cl)cc(Cl)nn1-c1ccccc1 | inconclusive [inhibitor, single point] | 
CCCN1Cc2cccc(C(=O)NC3CCCC3)c2C1=O | inconclusive [inhibitor, single point] | 
O=S(=O)(NC1=NCCCCC1)c1ccc(F)cc1 | inconclusive [inhibitor, single point] | 
CN(C)S(=O)(=O)Oc1ccc(C(=O)Nc2cccc(C(F)(F)F)c2)cc1 | active: 11.2 µM | 
O=C(N/N=C/c1ccccc1)c1sccc1OCc1ccc(F)cc1 | inconclusive [inhibitor, single point] | 
Cc1ccnc(NC(=O)COc2ccc3oc4c(c3c2)CCCC4)c1 |  | inactive: 1.02%
CCCCN(Cc1ccccc1)C(=O)C1CCN(Cc2sccc2C)CC1 | inconclusive [inhibitor, single point] | 
Cc1ccc(S(=O)(=O)N2CCN(C(=O)COC(=O)/C=C/c3ccccc3[N+](=O)[O-])CC2)c(C)c1 | inconclusive [inhibitor, single point] | 
CCCCC1=CC2=C(c3ccco3)C(=O)C(C)(OC(=O)c3ccc(OC)cc3)C(=O)C2=CN1CC1CC1 (stereo not given) | inconclusive [inhibitor, single point] | 
CCOC(=O)C1CCCN(S(=O)(=O)c2ccc(S(N)(=O)=O)cc2)C1 (stereo not given) | inconclusive [inhibitor, single point] | 
CC1CCN(c2c(NCC3CCC(C(=O)NCCc4ccc(Cl)cc4)CC3)c(=O)c2=O)CC1 (stereo not given) | inconclusive [inhibitor, single point] | 
Cc1ccc(C)c(NC(=O)C2CCCN(S(=O)(=O)c3c(C)noc3/C=C/N(C)C)C2)c1 (stereo not given) |  | inactive: -26.9%
O=C(Cn1nc(-c2ccccc2)ccc1=O)Nc1ccc(NC(=O)c2ccccn2)cc1 | inconclusive [inhibitor, partial curve] | 
CSc1ncccc1C(=O)OCC(=O)N1CC2(C)CC1CC(C)(C)C2 (stereo not given) |  | inactive: 17.8%
